According to publication PMC6919601, “Identification of Plasmodium dipeptidyl aminopeptidase allosteric inhibitors by high throughput screening” (PLoS ONE, 2019):
Where “and” joins values, the source holds several entries; their conditions need not be identical. Identical values can stand only once. Hit rate of the full screen: of about 110,000 compounds, about 230 (0.21%) showed an effect of 50% or more. This is one part of the list.

Molecular target: DPAP1 (Plasmodium falciparum, UniProt Q8IIJ9)
Sequence (Q8IIJ9 whole entry, looked up): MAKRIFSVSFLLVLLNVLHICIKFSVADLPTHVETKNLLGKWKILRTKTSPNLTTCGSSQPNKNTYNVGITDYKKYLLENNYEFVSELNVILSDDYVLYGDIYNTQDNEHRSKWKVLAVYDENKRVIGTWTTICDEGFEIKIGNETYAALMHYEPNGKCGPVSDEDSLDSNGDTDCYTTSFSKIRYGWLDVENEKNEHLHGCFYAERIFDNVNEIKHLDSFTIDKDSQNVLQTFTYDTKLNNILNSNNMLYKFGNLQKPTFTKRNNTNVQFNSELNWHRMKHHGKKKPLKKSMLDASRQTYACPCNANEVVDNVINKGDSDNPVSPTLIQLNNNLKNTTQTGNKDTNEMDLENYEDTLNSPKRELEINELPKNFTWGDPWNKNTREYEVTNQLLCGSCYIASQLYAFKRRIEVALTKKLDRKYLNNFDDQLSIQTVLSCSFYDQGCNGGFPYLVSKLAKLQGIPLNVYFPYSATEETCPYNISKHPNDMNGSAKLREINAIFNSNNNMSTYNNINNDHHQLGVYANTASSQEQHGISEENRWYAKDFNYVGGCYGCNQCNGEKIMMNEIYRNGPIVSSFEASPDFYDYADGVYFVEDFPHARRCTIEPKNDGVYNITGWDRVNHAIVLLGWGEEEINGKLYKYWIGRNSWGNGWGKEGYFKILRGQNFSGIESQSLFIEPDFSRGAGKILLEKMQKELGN
Experiment: primary screen, percent inhibition; read by cleavage of a fluorogenic dipeptide substrate; higher = more effect of the substance
Parameters: species or system P. falciparum D10 trophozoite lysates; single well
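Further: 30 min substrate incubation versus DMSO and 10 µM JCP410 controls.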

| Compound | % Inhibition @ 10 uM |
| --- | --- |
| O=C(NC1CCN(Cc2ccccc2)CC1)C1CCN(c2nc3ccccc3n3cccc23)CC1 | -0.495% |
| Cc1ccc(-n2cnc3ncnc(-c4ccccc4)c32)cc1 | -3.49% |
| O=C(NCc1ccccc1Cl)C1CCCN(c2nc3ccsc3c(=O)s2)C1 (centres unmarked) | -2.74% |
| CC(=O)NS(=O)(=O)c1cccnc1Nc1cccc(Cl)c1 | 2.13% |
| CC1=C(C(=O)Nc2ccccc2C)C(c2ccc(Cl)cc2)n2ncnc2N1 (centres unmarked) | -3.41% |
| COc1cc(CN(C)CCN(C)C)cc(Br)c1O | 0.815% |
| Cc1ccc(S(=O)(=O)N(CCC(=O)O)Cc2ccccc2)cc1 | -1.99% |
| CCN(CC)CCNC(=O)C1CCN(c2ncnc3c2nc2n3CCCCC2)CC1 | 2.36% |
| CCN(CC)CCNC(=O)Cc1c(C)nc2c(-c3ccc(F)cc3)c(C)nn2c1C | -12.1% |
| CCN(Cc1ccccc1)C(=O)Cn1cc2c(n1)CCCCCC2 | 0.137% |
| CCCCc1ccc(NS(=O)(=O)c2ccc(F)cc2)cc1 | 3.95% |
| COc1ccc(C2C(C#N)=C(N)OC3=C2C(=O)CC(C)(C)C3)cc1COc1ccc(C)cc1 (centres unmarked) | 1.57% |
| O=C1C(c2ccc(F)cc2)N(CCC2=CCCCC2)C(=O)CN1C1CCCCC1 (centres unmarked) | -3.94% |
| COc1ccc(Br)cc1CNC(=O)c1cc2sc(C)cc2n1C | -3.08% |
| CCOC(=O)N1CCc2c(sc3c2C(=O)NC(c2ccc(O)c(OC)c2)N3)C1 (centres unmarked) | 2.46% |
| OCCN1CCN(Cc2ccc(F)cc2)CC1 | -2.6% |
| COc1ccc(NC(=O)C2C3CCC(C3)C2C(=O)O)c(OC)c1 (centres unmarked) | -3.12% |
| O=C1NC(=O)/C(=C\c2ccc(OCc3cccc(C(=O)O)c3)c(Cl)c2)N1 | -0.178% |
| Cc1ccc(S(=O)(=O)O)cc1 | -1.29% |
| COc1ccc(OC)c(CN2CCNCC2)c1 | 5.8% |
| CCCCN(CCCC)c1ncnc2sc3c(c12)CCCC3 | 3.7% |
| O=C(Nc1ccc(S(=O)(=O)Nc2nccs2)cc1)c1ccc(Br)o1 | 2.69% |

| Compound | % Inhibition @ 10 uM |
| --- | --- |
| CC(C)c1ccc(-c2c(C#N)c(N)nc3c2CCCCC3)cc1 | -6.22% |
| CCN(CC)C(=O)CSc1nc2c(c(=O)n(C)c(=O)n2C)n1Cc1ccccc1C | -5.51% |
| Cc1ccc(S(=O)(=O)N(CC(=O)N(C)C)c2ccc(Cl)cc2)cc1 | 0.851% and 1.19% |
| Nc1nnc2ccccc2n1 | 1.72% |
| CCCS(=O)(=O)N1CCC(C(=O)NCCN2CCC(Cc3ccccc3)CC2)CC1 | -1.79% |
| O=S(=O)(c1ccc(Cl)cc1)N1CCCc2ccccc21 | -1.62% |
| Cn1cc(Br)c(C(=O)Nc2sc3c(c2C(N)=O)CCC3)n1 | 1.02% |
| CC(=O)N1CC(c2ccccc2)CC1=O (centres unmarked) | 0.131% |
| O=S(=O)(c1ccc(-c2ccc(O)nn2)o1)N1CC=C(c2ccccc2)CC1 | -5.38% |
| O=C(Cn1ncc2c3ccccc3n(Cc3ccccc3)c2c1=O)NCc1ccco1 | -1.58% |
| COc1ccc(-c2cc(C(=O)Nc3ccc4c(c3)OCO4)c3ccccc3n2)c(OC)c1 | -11.5% |
| O=C(C1CCCN1S(=O)(=O)c1cccc2nsnc12)N1CCC(Cc2ccccc2)CC1 (centres unmarked) | -4.1% |
| CN(C)CCCN1C(=O)C(O)=C(C(=O)c2ccc(S(=O)(=O)N(C)C)cc2)C1c1ccco1 (centres unmarked) | -3.06% |
| CC(C)OC(=O)/C(=C/c1ccco1)NC(=O)c1ccccc1 | -4.74% |
| O=C(CSCCO)Nc1nc(-c2ccc(Br)cc2)cs1 | -4.02% |
| COc1ccc(S(=O)(=O)NCCSCc2ccco2)c(Cl)c1Cl | 3.79% |
| O=C(COC(=O)c1ccccc1F)c1ccc(-n2nncc2-c2ccccc2)cc1 | -4.32% |
| CCOC(=O)N1CCN(Cc2nc3c(c(=O)n(C)c(=O)n3C)n2CC(=O)c2ccccc2)CC1 | -3.23% |
| CC(C)C[C@H](NC(=O)c1cc(F)cc(F)c1F)C(=O)NCC#N | -4.72% |
| COCCN1Cc2cccc(C(=O)NCc3ccc4c(c3)OCO4)c2C1=O | -0.499% |
| O=C(c1ccccc1)N1CCN(c2ncnc3c2oc2ccccc23)CC1 | -1.72% |
| O=C1NC(=O)C(=Cc2ccc([N+](=O)[O-])o2)C(=O)N1 | -2.81% |

| Compound | % Inhibition @ 10 uM |
| --- | --- |
| CCOCCCNC(=O)CCc1c(C)nc2c(c(C)nn2C)c1C | -4.24% |
| COc1cc2c(cc1OC)CN(S(=O)(=O)c1cccc(S(=O)(=O)N3CCOCC3)c1)CC2 | 3.88% |
| COc1ccccc1N(CC(=O)NCc1ccccn1)S(C)(=O)=O | 2.44% |
| COc1ccc(-c2nnc(NC(=O)C(C)(C)C)s2)cc1OC | -10% |
| Cc1nc(C)c(Cc2ccccc2Cl)c(O)n1 | -0.622% |
| CCOc1ccc2nc(N3CCC(C(=O)Nc4ccc(Cl)cn4)CC3)sc2c1 | 4.95% |
| COc1ccccc1C1C(C(=O)Nc2ccc(Cl)cc2)=C(C)Nc2nc(CCCO)nn21 (centres unmarked) | 0.528% |
| CC1CCCC(C)N1CCCNC(=O)C1CCCN(S(=O)(=O)N2CCC3(CC2)OCCO3)C1 (centres unmarked) | -2.26% |
| CN1C(C(=O)NCc2cccnc2)=CC(c2ccco2)=NS1(=O)=O | 5.48% |
| CCN(CC)S(=O)(=O)c1cc(C(=O)O)c(Cl)cc1Cl | 2.76% |
| O=C(CSc1nnc(-c2ccco2)c(-c2ccco2)n1)Nc1cnc2ccccc2c1 | -3.96% |
| CC(C)(C)c1ccc(OCCCCCN2CCCCC2)cc1 | 5.01% |
| CC1(C)Cc2ccccc2C2=Nc3ccccc3C(=O)C21 (centres unmarked) | -5.68% |
| c1ccc(CC2CCN(c3nc4ccccc4c4nc(-c5cccnc5)nn34)CC2)cc1 | 4.16% |
| CCc1sc2ncnc(O)c2c1-c1ccccc1 | 2.18% |
| C(CN1CCOCC1)NC1CC2CCC1C2 (centres unmarked) | -0.0908% |
| Cc1ccc2sc(-c3ccc(NC(=O)c4ccco4)cc3)nc2c1 | 2.6% |
| Cc1ccc(CNC(=O)c2cccnc2)cc1 | 5.73% |
| COc1ccc(NC(=O)CSc2nc(O)c(C#N)c(-c3ccccc3)n2)cc1 | -6.69% |
| CCOC(=O)c1c(NC(=O)c2ccccc2)sc2c1CCCC2 | -1.76% |
| Cc1ccsc1C(=O)Nc1sc2c(c1C#N)CCCC2 | 2.38% |
